This is one part of the list.
Experiments:
Assay in all cases: glycan array binding signal (z-score within array); higher = stronger binding
Details in all cases: glycan notation: IUPAC condensed, linker removed
[1] = target: Neu5Ac(a2-6)Gal(b1-4)GlcNAc(b1-2)Man(a1-3)[GlcNAc(b1-2)Man(a1-6)]Man(b1-4)GlcNAc(b1-4)GlcNAc
Procedure, shortened: (§1)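 From the Consortium for Functional Glycomics database, 3228 arrays were curated, keeping only those whose protein sequence was available. Binding is given as a within-array Z-score averaged across arrays sharing a protein sequence and across linkers. Negative Z-scores can be read as non-binding.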

[2] = target: Neu5Ac(a2-6)Gal(b1-4)GlcNAc(b1-2)Man(a1-3)[GlcNAc(b1-2)Man(b1-4)GlcNAc(b1-2)Man(a1-6)]Man(b1-4)GlcNAc(b1-4)GlcNAc
Procedure, shortened: as §1

[3] = target: Neu5Ac(a2-6)Gal(b1-4)GlcNAc(b1-2)Man(a1-3)[Man(a1-6)]Man(b1-4)GlcNAc(b1-4)GlcNAc
Procedure, shortened: as §1

[4] = target: Neu5Ac(a2-6)Gal(b1-4)GlcNAc(b1-2)Man(a1-3)[Neu5Ac(a2-6)Gal(b1-4)GlcNAc(b1-2)Man(a1-6)]Man(b1-4)GlcNAc(b1-4)GlcNAc
Procedure, shortened: as §1

[5] = target: Neu5Ac(a2-6)Gal(b1-4)GlcNAc(b1-2)Man(a1-6)Man(b1-4)GlcNAc(b1-4)GlcNAc
Procedure, shortened: as §1

[6] = target: Neu5Ac(a2-6)Gal(b1-4)GlcNAc(b1-2)Man(a1-6)[Gal(b1-4)GlcNAc(b1-2)Man(a1-3)]Man(b1-4)GlcNAc(b1-4)GlcNAc
Procedure, shortened: as §1

[7] = target: Neu5Ac(a2-6)Gal(b1-4)GlcNAc(b1-2)Man(a1-6)[GlcNAc(b1-2)Man(a1-3)]Man(b1-4)GlcNAc(b1-4)GlcNAc
Procedure, shortened: as §1

[8] = target: Neu5Ac(a2-6)Gal(b1-4)GlcNAc(b1-2)Man(a1-6)[Man(a1-3)]Man(b1-4)GlcNAc(b1-4)GlcNAc
Procedure, shortened: as §1

[9] = target: Neu5Ac(a2-6)Gal(b1-4)GlcNAc(b1-3)Gal(b1-3)GlcNAc
Procedure, shortened: as §1

[10] = target: Neu5Ac(a2-6)Gal(b1-4)GlcNAc(b1-3)Gal(b1-4)GlcNAc
Procedure, shortened: as §1

[11] = target: Neu5Ac(a2-6)Gal(b1-4)GlcNAc(b1-3)Gal(b1-4)GlcNAc(b1-3)Gal(b1-4)GlcNAc
Procedure, shortened: as §1

[12] = target: Neu5Ac(a2-6)Gal(b1-4)GlcNAc(b1-3)Gal(b1-4)[Fuc(a1-3)]GlcNAc(b1-3)Gal(b1-4)[Fuc(a1-3)]GlcNAc
Procedure, shortened: as §1

[13] = target: Neu5Ac(a2-6)Gal(b1-4)GlcNAc(b1-3)GalNAc
Procedure, shortened: as §1

[14] = target: Neu5Ac(a2-6)Gal(b1-4)GlcNAc6S
Procedure, shortened: as §1

Neu5Ac(a2-6)GalNAc = target: Neu5Ac(a2-6)GalNAc
Procedure, shortened: as §1

[15] = target: Neu5Ac(a2-6)GalNAc(b1-4)GlcNAc
Procedure, shortened: as §1

[16] = target: Neu5Ac(a2-6)GlcNAc(b1-4)GlcNAc
Procedure, shortened: as §1

[17] = target: Neu5Ac(a2-6)GlcNAc(b1-4)GlcNAc(b1-4)GlcNAc
Procedure, shortened: as §1

Neu5Ac(a2-8)Neu5Ac = target: Neu5Ac(a2-8)Neu5Ac
Procedure, shortened: as §1

[18] = target: Neu5Ac(a2-8)Neu5Ac(a2-3)Gal(b1-3)GalNAc(b1-4)[Neu5Ac(a2-8)Neu5Ac(a2-3)]Gal(b1-4)Glc
Procedure, shortened: as §1

[19] = target: Neu5Ac(a2-8)Neu5Ac(a2-3)Gal(b1-4)Glc
Procedure, shortened: as §1

[20] = target: Neu5Ac(a2-8)Neu5Ac(a2-3)[Gal(b1-3)GalNAc(b1-4)]Gal(b1-4)Glc
Procedure, shortened: as §1

[21] = target: Neu5Ac(a2-8)Neu5Ac(a2-3)[GalNAc(b1-4)]Gal(b1-4)Glc
Procedure, shortened: as §1

[22] = target: Neu5Ac(a2-8)Neu5Ac(a2-8)Neu5Ac
Procedure, shortened: as §1

[23] = target: Neu5Ac(a2-8)Neu5Ac(a2-8)Neu5Ac(a2-3)Gal(b1-4)Glc
Procedure, shortened: as §1

[24] = target: Neu5Ac(a2-8)Neu5Ac(a2-8)Neu5Ac(a2-3)[GalNAc(b1-4)]Gal(b1-4)Glc
Procedure, shortened: as §1

[25] = target: Neu5Ac(a2-8)Neu5Ac(a2-8)Neu5Ac(a2-8)Neu5Ac(a2-3)[GalNAc(b1-4)]Gal(b1-4)Glc
Procedure, shortened: as §1

[26] = target: Neu5Ac(b2-6)Gal(b1-4)GlcNAc
Procedure, shortened: as §1

Neu5Ac(b2-6)GalNAc = target: Neu5Ac(b2-6)GalNAc
Procedure, shortened: as §1

[27] = target: Neu5Ac9Ac(a2-3)Gal(b1-3)GlcNAc
Procedure, shortened: as §1

[28] = target: Neu5Ac9Ac(a2-3)Gal(b1-4)GlcNAc
Procedure, shortened: as §1

[29] = target: Neu5Ac9Ac(a2-6)Gal(b1-4)GlcNAc
Procedure, shortened: as §1

[30] = target: Neu5Gc(a2-3)Gal(b1-3)GlcNAc
Procedure, shortened: as §1

[31] = target: Neu5Gc(a2-3)Gal(b1-3)[Fuc(a1-4)]GlcNAc
Procedure, shortened: as §1

Neu5Gc(a2-3)Gal(b1-4)Glc = target: Neu5Gc(a2-3)Gal(b1-4)Glc
Procedure, shortened: as §1

[32] = target: Neu5Gc(a2-3)Gal(b1-4)GlcNAc
Procedure, shortened: as §1

[33] = target: Neu5Gc(a2-3)Gal(b1-4)[Fuc(a1-3)]GlcNAc
Procedure, shortened: as §1

[34] = target: Neu5Gc(a2-6)Gal(b1-4)GlcNAc
Procedure, shortened: as §1

Neu5Gc(a2-6)GalNAc = target: Neu5Gc(a2-6)GalNAc
Procedure, shortened: as §1

[35] = target: Neu5Gc(b2-6)Gal(b1-4)GlcNAc
Procedure, shortened: as §1

B1: SCA (Schizophyllum commune) (protein)
chain: MGIDQGVYLITNAGSGTAATLKDGYVKGWERIKGKEQLNQLWFVKSVKTSASDPGYAAFNLATNKVLDLEKGLADRGTPILGWDYHEGDNQHWVIKKQADGKYYKIQSVKTQTFVDLNNGGKDNGTKIQGWVGSWDETNSHQRWVFNQFSATGSRIKSILDTHPKIHGKVIVEWPDRIYFTPDQYIFEAIWAKTGLADIKPRDPLFQSEAYEKVFKGWVVSRAQEIIKVDGFDILVGSLSLVEKSTQKIKVLDVSVRTSDDKSPDLSQIVFFDPESGRTLVDIPEGYEVNSVII
In the case of B1, the “glycan array binding signal (z-score)” value [1] is reported as -0.155, the “glycan array binding signal (z-score)” value [2] is reported as -0.16 and the “glycan array binding signal (z-score)” value [3] is reported as -0.153. The “glycan array binding signal (z-score)” value [4] was -0.16, the “glycan array binding signal (z-score)” value [5] was -0.16 and the “glycan array binding signal (z-score)” value [6] was -0.157. For the same binder, the “glycan array binding signal (z-score)” value [7] was -0.157, the “glycan array binding signal (z-score)” value [8] was -0.158 and the “glycan array binding signal (z-score)” value [9] was -0.159. The “glycan array binding signal (z-score)” value [10] was -0.16, the “glycan array binding signal (z-score)” value [11] was -0.165 and the “glycan array binding signal (z-score)” value [12] was -0.156. For the same binder, the “glycan array binding signal (z-score)” value [13] was 0.316, the “glycan array binding signal (z-score)” value [14] was -0.141 and the “glycan array binding signal (z-score)” value (Neu5Ac(a2-6)GalNAc) was -0.162. The “glycan array binding signal (z-score)” value [15] was -0.162, the “glycan array binding signal (z-score)” value [16] was -0.141 and the “glycan array binding signal (z-score)” value [17] was -0.16. For the same binder, the “glycan array binding signal (z-score)” value (Neu5Ac(a2-8)Neu5Ac) was -0.161, the “glycan array binding signal (z-score)” value [18] was -0.156 and the “glycan array binding signal (z-score)” value [19] was -0.163. For the same binder, the “glycan array binding signal (z-score)” value [20] was -0.161, the “glycan array binding signal (z-score)” value [21] was -0.161 and the “glycan array binding signal (z-score)” value [22] was -0.157. For the same binder, the “glycan array binding signal (z-score)” value [23] was -0.16, the “glycan array binding signal (z-score)” value [24] was -0.165 and the “glycan array binding signal (z-score)” value [25] was -0.132. The “glycan array binding signal (z-score)” value [26] was -0.159, the “glycan array binding signal (z-score)” value (Neu5Ac(b2-6)GalNAc) was -0.162 and the “glycan array binding signal (z-score)” value [27] was -0.16. The “glycan array binding signal (z-score)” value [28] was -0.16, the “glycan array binding signal (z-score)” value [29] was -0.161 and the “glycan array binding signal (z-score)” value [30] was -0.16. For the same binder, the “glycan array binding signal (z-score)” value [31] was -0.16, the “glycan array binding signal (z-score)” value (Neu5Gc(a2-3)Gal(b1-4)Glc) was -0.163 and the “glycan array binding signal (z-score)” value [32] was -0.161. The “glycan array binding signal (z-score)” value [33] was -0.161, the “glycan array binding signal (z-score)” value [34] was -0.162 and the “glycan array binding signal (z-score)” value (Neu5Gc(a2-6)GalNAc) was -0.163. For the same binder, the “glycan array binding signal (z-score)” value [35] was -0.161.

From the supplement of paper PMC8728848
